According to publication PMC6212790:
This is one part of the list. At the low end of the ranking the order means little.

Biological target: T1, GST-Rok (full length) (UniProt O34857)
T1 sequence: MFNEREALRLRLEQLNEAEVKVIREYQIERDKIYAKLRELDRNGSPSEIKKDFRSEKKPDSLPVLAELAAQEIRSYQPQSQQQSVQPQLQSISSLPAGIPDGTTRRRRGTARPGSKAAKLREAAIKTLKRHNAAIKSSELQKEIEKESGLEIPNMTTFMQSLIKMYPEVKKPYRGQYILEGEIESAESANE
Assay: protein binding microarray;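 also: rank score from −0.5 (least bound) to 0.5 (best bound)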
Settings: Rok is a gene silencer of Bacillus subtilis; high values mean tight binding; most listed sequences are background and not binding sites; double strand, one strand shown

Sequence | binding signal
AGAGATTA | 0.055 E-score
AGATCCCC | -0.261 E-score
CGTTCCCC | -0.344 E-score
ATCATCCA | -0.0709 E-score
GCATGAGC | -0.161 E-score
ACGGCAGG | -0.232 E-score
CACAATCA | -0.158 E-score
CTGCTCGA | -0.167 E-score
ATAATAAA | 0.297 E-score
ATAATTGA | 0.257 E-score
GTGCTATA | 0.147 E-score
ACTATCCA | 0.202 E-score
ACACGGGA | -0.241 E-score
CCTTTAAG | -0.233 E-score
ATAGTGAA | 0.142 E-score
AGAACGGG | -0.151 E-score
GTCAGACA | -0.0831 E-score
GGGAGCCA | -0.337 E-score
AACGGACG | -0.262 E-score
ATAGGAAC | 0.113 E-score
GCTAAAGC | -0.219 E-score
CTAAAACA | 0.238 E-score
CCGATTTA | 0.178 E-score
CGTAATGC | 0.0534 E-score
ACGCCGCA | -0.209 E-score

Sequence | binding signal
CCCACATA | 0.000957 E-score
CAAAATGC | 0.102 E-score
ATCACGAT | 0.189 E-score
AGGCCACT | -0.0512 E-score
GGGTTCAA | -0.219 E-score
TATATTAA | 0.364 E-score
CTAAAGGC | -0.136 E-score
GGCACTGA | -0.158 E-score
CGACGCAA | 0.0906 E-score
AACCCGTA | 0.0805 E-score
CAACAACC | -0.155 E-score
GGAACTCA | -0.128 E-score
CGGATGTC | -0.0922 E-score
ATTACACC | 0.121 E-score
AGAAATCT | 0.244 E-score
ACTTCAGA | 0.0699 E-score
GTGGTGAA | 0.0689 E-score
ACGCAGCG | -0.209 E-score
ACTTACAC | 0.188 E-score
CCAATCAA | -0.122 E-score
ACGATCCC | -0.285 E-score
ACTTCTCT | 0.149 E-score
CTTAATCA | 0.0499 E-score
AACCTGAT | 0.133 E-score
CAGATTGA | 0.00835 E-score

Sequence | binding signal
CACTAGTC | 0.149 E-score
CGCCCCTC | -0.253 E-score
CCACTAAC | 0.145 E-score
CGGTAAAA | 0.278 E-score
CTACAAGA | 0.261 E-score
CATCCAAC | -0.00877 E-score
CCACTTTA | -0.00666 E-score
ACAGGTGC | -0.224 E-score
CGTGCATA | 0.191 E-score
ACCGGAAC | -0.176 E-score
ATCGAGTC | 0.0425 E-score
GTGCCGTA | 0.016 E-score
CGCTTATC | -0.0419 E-score
ATGGCAAA | -0.0889 E-score
AAGTGACT | -0.0431 E-score
AAACGCCT | -0.228 E-score
CCAGTGGC | -0.269 E-score
CGAGCTTA | -0.131 E-score
CGCCACGA | -0.194 E-score
AGGATCGC | -0.27 E-score
ACTATTCG | 0.188 E-score
AACTTACG | -0.0637 E-score
AATGTCGT | 0.00109 E-score
TCAAGTAA | 0.154 E-score
CGGTTAGC | -0.145 E-score

Sequence | binding signal
ATCCGTAC | 0.113 E-score
TATCAACA | 0.235 E-score
CAGCCAGG | -0.19 E-score
ATATAGGA | 0.195 E-score
ACGGCTGC | -0.12 E-score
AAACGTAG | 0.129 E-score
AGCAGTTC | -0.129 E-score
AGGGGGGA | -0.358 E-score
GCGCCAGC | -0.215 E-score
CACGTTGA | 0.088 E-score
CGGGAGAC | -0.261 E-score
GCAAACTA | 0.386 E-score
CGGACGTC | -0.0762 E-score
TAGTCAAA | 0.0859 E-score
AGCCTAGG | -0.0939 E-score
GAGAAGAC | -0.158 E-score
AGGCTATC | -0.0983 E-score
ACAGCATC | -0.0332 E-score
CTGTTGGC | -0.196 E-score
CCTGATGA | -0.175 E-score
GGATACGA | 0.147 E-score
ACACGGGG | -0.153 E-score
TGAACTAA | 0.0469 E-score
GGAGATCA | -0.09 E-score
CATGTTGA | -0.0266 E-score

Sequence | binding signal
TAGAGGAA | -0.102 E-score
AACCGCAG | 0.0679 E-score
CCTGCGGA | -0.113 E-score
ATCCGGAC | -0.147 E-score
AAGGGCTG | -0.263 E-score
TAAAGCCA | -0.0305 E-score
CCCCAATA | -0.201 E-score
AGTTAGGC | -0.00656 E-score
GTTCCGCA | -0.194 E-score
ATCCTGCG | -0.253 E-score
CCAATGAG | -0.122 E-score
CTAAACCC | -0.0607 E-score
CGTCTTCA | -0.18 E-score
ACCTTATC | 0.155 E-score
CTGTTGAC | -0.176 E-score
ATATACTC | 0.288 E-score
AAGCCTGA | -0.131 E-score
AACACGCA | -0.059 E-score
ACCAATCG | 0.168 E-score
CGCGCACG | -0.116 E-score
ACTTCGGG | -0.166 E-score
GACCCGTC | -0.405 E-score
GAACGCGA | -0.116 E-score
GTAGCGAA | 0.0427 E-score
AGTGTACC | -0.0418 E-score

Sequence | binding signal
TGAAAGCA | 0.149 E-score
ATTACTCG | 0.225 E-score
ACCGTGTG | -0.264 E-score
ATCCTCCG | -0.372 E-score
GGCCGGCA | -0.232 E-score
ATACTGGA | 0.0812 E-score
CGGGAGGA | -0.27 E-score
CCATACTA | 0.318 E-score
CGTCGGGA | -0.196 E-score
CGACTGAG | -0.126 E-score
ACAAACTG | 0.127 E-score
AAGACGCC | -0.197 E-score
CGGACCCG | -0.187 E-score
GGAACCAC | -0.326 E-score
GTGGTTTA | 0.128 E-score
AGGGGCGG | -0.323 E-score
ACGTCTAT | 0.0311 E-score
GTCGACAA | -0.15 E-score
CGAAGGGA | -0.25 E-score
TAACATCA | 0.239 E-score
CTTCTGGC | -0.0909 E-score
AATCAACT | 0.143 E-score
GTCACACA | -0.0901 E-score
AAACACCC | -0.0072 E-score
CCGGGGAC | -0.294 E-score

Sequence | binding signal
CCCGGCAA | -0.238 E-score
AGCCTGCC | -0.413 E-score
CAACCGCC | -0.241 E-score
CGACACTC | 0.00292 E-score
AGCAATGG | -0.123 E-score
ATTTTTGA | 0.0221 E-score
GTAATGAC | 0.089 E-score
ACCAAGGT | -0.0988 E-score
ATTGTAAA | 0.19 E-score
TACACTAA | 0.231 E-score
ACACTTAC | 0.125 E-score
AATAGCAT | 0.157 E-score
CGGCAGGA | -0.23 E-score
AGAACAGA | 0.0149 E-score
ATTAGGAG | 0.00955 E-score
TAGGTGCA | -0.0387 E-score
AAATGCTG | -0.0176 E-score
ACGGGTTA | -0.0683 E-score
ACAAGGGT | -0.232 E-score
ACAGCGAA | 0.0835 E-score
AGTACAAA | 0.343 E-score
GGCTATCA | -0.0678 E-score
CAGATACA | 0.0953 E-score
AACGGCCG | -0.141 E-score
AGTCAGGG | -0.203 E-score

Sequence | binding signal
CTAAGTAG | 0.265 E-score
CGCATCAG | -0.0908 E-score
AGGCCTCC | -0.306 E-score
CCCGAATA | -0.0335 E-score
AACGCGGG | -0.215 E-score
ACAACTCT | 0.13 E-score
ACTCTCGA | 0.0258 E-score
TAAGGGCA | -0.0713 E-score
AATCGAGT | 0.0488 E-score
AACTGCCC | -0.229 E-score
AGCACTGC | -0.181 E-score
ACTGCAAG | -0.0875 E-score
GTGCTTTA | -0.00122 E-score
AGCCACGC | -0.0645 E-score
GCCTTCCA | -0.308 E-score
CCGCTAGG | -0.19 E-score
CAGGGTTA | -0.0832 E-score
AAGCATGC | 0.0123 E-score
CCAGAGAA | 0.0464 E-score
CTCAGGGC | -0.361 E-score
CGATACGA | -0.0427 E-score
TAACGTCA | -0.0277 E-score
ACCCGTGC | -0.248 E-score
TATACCAA | 0.295 E-score
GTTACGTA | 0.169 E-score

Sequence | binding signal
GGGCGCAC | -0.355 E-score
GATACGGA | -0.0623 E-score
GCTTCACC | -0.146 E-score
GATCCAAA | -0.0512 E-score
GGATACAA | 0.00352 E-score
GGTAAGAC | -0.193 E-score
CCGTAGTA | 0.257 E-score
AGAACTTC | 0.0745 E-score
AGGAATTC | -0.159 E-score
TTACTAAA | 0.32 E-score
ATCCCAAC | -0.0756 E-score
ACCAGGTG | -0.124 E-score
AAGCGACG | -0.171 E-score
ACACCGCA | -0.187 E-score
CCAGCCTA | -0.263 E-score
AAGAGCCG | -0.258 E-score
ACCGCCTG | -0.287 E-score
CTGACCGC | -0.241 E-score
CTATTTGA | 0.132 E-score
